{"source": "the supplement of paper PMC3724861", "note": "Some of the results follow.", "data": [{"system": "T1, Caupolican (Caup) homeodomain DNA-binding domain", "T1 sequence": "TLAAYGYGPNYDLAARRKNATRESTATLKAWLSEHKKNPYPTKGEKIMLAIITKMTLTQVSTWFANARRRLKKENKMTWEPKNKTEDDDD", "assay": "PBM E-score (8-mer, recovered from the published 9-mer minima) (E-score (dimensionless, -0.5 to 0.5)); Drosophila protein; higher = stronger relative binding preference, active = 0.31 or more", "in_short": "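Caup's homeodomain DNA-binding domain (residues 214-303) was made by in vitro transcription and translation and applied at 100 nM to custom-designed protein binding microarrays. Each value is an enrichment score that gives relative binding preference for a short DNA word, with higher meaning stronger. The 8-mer values were recovered from published 9-mer scores, each of which was the minimum of its two constituent 8-mer scores. A cutoff of 0.31 marks candidate sites.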", "values": [{"sequence": "ATCTAAAA", "PBM E-score": "inactive: 0.00698"}, {"sequence": "AGGCGTAC", "PBM E-score": "inactive: 0.0617"}, {"sequence": "ACGGAGCC", "PBM E-score": "inactive: -0.287"}, {"sequence": "CCTAATGC", "PBM E-score": "inactive: 0.00047"}, {"sequence": "AACGGACA", "PBM E-score": "inactive: 0.156"}, {"sequence": "TAATACTA", "PBM E-score": "≥ 0.221"}, {"sequence": "ACTGACTG", "PBM E-score": "inactive: -0.057"}, {"sequence": "CCATAAAG", "PBM E-score": "inactive: -0.0873"}, {"sequence": "AGACGCAT", "PBM E-score": "inactive: -0.0367"}, {"sequence": "ATCTTGCC", "PBM E-score": "inactive: -0.021"}, {"sequence": "GGATACAC", "PBM E-score": "inactive: 0.154"}, {"sequence": "CACAATCA", "PBM E-score": "inactive: 0.052"}, {"sequence": "ATCCGCAC", "PBM E-score": "inactive: -0.121"}, {"sequence": "GAAAATTC", "PBM E-score": "inactive: -0.00014"}, {"sequence": "TCCTCGAA", "PBM E-score": "inactive: -0.013"}, {"sequence": "ACCTCGGC", "PBM E-score": "inactive: -0.245"}, {"sequence": "ACAGTGCC", "PBM E-score": "inactive: -0.0604"}, {"sequence": "ACTTGTAG", "PBM E-score": "inactive: 0.297"}, {"sequence": "GACTTAGC", "PBM E-score": "inactive: -0.0818"}, {"sequence": "CGTAAGGC", "PBM E-score": "inactive: -0.0394"}, {"sequence": "CGTTCGCC", "PBM E-score": "inactive: -0.101"}, {"sequence": "CAGGGGAA", "PBM E-score": "inactive: -0.133"}, {"sequence": "CTAGTTTC", "PBM E-score": "inactive: 0.0215"}, {"sequence": "GAACCGCC", "PBM E-score": "inactive: -0.183"}, {"sequence": "TCCCCGGA", "PBM E-score": "≥ -0.103"}, {"sequence": "AACCAGTA", "PBM E-score": "inactive: 0.114"}, {"sequence": "TACACACA", "PBM E-score": "inactive: 0.284"}, {"sequence": "CTAACAAA", "PBM E-score": "inactive: 0.169"}, {"sequence": "GTGCATGA", "PBM E-score": "inactive: 0.129"}, {"sequence": "CGTCGATC", "PBM E-score": "inactive: 0.065"}, {"sequence": "CTCATCGC", "PBM E-score": "inactive: -0.0448"}, {"sequence": "ACCATAGA", "PBM E-score": "inactive: -0.0446"}, {"sequence": "GGCGTGCA", "PBM E-score": "inactive: -0.0859"}, {"sequence": "GCTAACAA", "PBM E-score": "inactive: 0.192"}, {"sequence": "GTAACAAC", "PBM E-score": "active: 0.341"}, {"sequence": "AAGTCTTA", "PBM E-score": "inactive: 0.0512"}, {"sequence": "AAACTGAT", "PBM E-score": "inactive: 0.0804"}, {"sequence": "CTCAGTTC", "PBM E-score": "inactive: -0.0141"}, {"sequence": "AGGCACGG", "PBM E-score": "inactive: -0.179"}, {"sequence": "GCCTACCA", "PBM E-score": "inactive: -0.146"}, {"sequence": "CACACCTG", "PBM E-score": "inactive: -0.0345"}, {"sequence": "ATAATGAG", "PBM E-score": "inactive: 0.0535"}, {"sequence": "TCTTCAAA", "PBM E-score": "inactive: 0.0437"}, {"sequence": "ATCCCTTA", "PBM E-score": "inactive: 0.0322"}, {"sequence": "ATCTGTCG", "PBM E-score": "inactive: 0.099"}, {"sequence": "CCATGCTA", "PBM E-score": "inactive: 0.102"}, {"sequence": "CATGTTGA", "PBM E-score": "active: 0.38"}, {"sequence": "GCCGTCTA", "PBM E-score": "inactive: -0.119"}, {"sequence": "AGATTGAT", "PBM E-score": "inactive: 0.0423"}, {"sequence": "GCATAGTA", "PBM E-score": "inactive: 0.141"}, {"sequence": "AAGACGTG", "PBM E-score": "inactive: 0.0275"}, {"sequence": "AAGGAGCG", "PBM E-score": "inactive: -0.123"}, {"sequence": "GTCTGGAA", "PBM E-score": "inactive: -0.00114"}, {"sequence": "GACGTTAC", "PBM E-score": "inactive: 0.0391"}, {"sequence": "GATATGCA", "PBM E-score": "inactive: 0.0393"}, {"sequence": "CAATGTGC", "PBM E-score": "inactive: 0.0278"}, {"sequence": "ACGGATCC", "PBM E-score": "inactive: -0.141"}, {"sequence": "ATGATCGA", "PBM E-score": "inactive: 0.0925"}, {"sequence": "AAGATGGC", "PBM E-score": "inactive: -0.0976"}, {"sequence": "AATTCACC", "PBM E-score": "inactive: 0.0329"}, {"sequence": "GATATCCC", "PBM E-score": "inactive: -0.018"}, {"sequence": "GCGACATA", "PBM E-score": "inactive: 0.242"}, {"sequence": "AGGGTACC", "PBM E-score": "inactive: -0.158"}, {"sequence": "AGGTTTAT", "PBM E-score": "inactive: 0.0931"}, {"sequence": "GTGTGATA", "PBM E-score": "≥ 0.212"}, {"sequence": "GTGCAACA", "PBM E-score": "inactive: 0.208"}, {"sequence": "TACCCTAA", "PBM E-score": "inactive: 0.0159"}, {"sequence": "GAAGTAAC", "PBM E-score": "inactive: 0.0896"}, {"sequence": "TGCCATAA", "PBM E-score": "inactive: -0.0447"}, {"sequence": "CGGGGAAA", "PBM E-score": "inactive: -0.129"}, {"sequence": "CACTTACC", "PBM E-score": "inactive: 0.0417"}, {"sequence": "AGTAGAAA", "PBM E-score": "inactive: 0.0433"}, {"sequence": "CAACTTAA", "PBM E-score": "inactive: 0.133"}, {"sequence": "CCTGTGCG", "PBM E-score": "inactive: -0.0874"}, {"sequence": "CGATGTTA", "PBM E-score": "inactive: 0.297"}, {"sequence": "AGAACCGA", "PBM E-score": "inactive: -0.088"}, {"sequence": "GCGACCAC", "PBM E-score": "inactive: -0.14"}, {"sequence": "CAGAACCC", "PBM E-score": "inactive: -0.153"}, {"sequence": "CTGCCCTC", "PBM E-score": "inactive: -0.212"}, {"sequence": "GACTAGTC", "PBM E-score": "inactive: 0.11"}, {"sequence": "AGTATACC", "PBM E-score": "inactive: 0.111"}, {"sequence": "CACATCTA", "PBM E-score": "inactive: 0.208"}, {"sequence": "GTACCCAA", "PBM E-score": "inactive: 0.0255"}, {"sequence": "AGACCGGC", "PBM E-score": "inactive: -0.0973"}, {"sequence": "AATGTCCC", "PBM E-score": "inactive: 0.0508"}, {"sequence": "CAGGGAAA", "PBM E-score": "inactive: 0.00986"}, {"sequence": "AAGCTGGC", "PBM E-score": "inactive: -0.177"}, {"sequence": "ATACATTA", "PBM E-score": "inactive: 0.219"}, {"sequence": "AGGCGACA", "PBM E-score": "inactive: 0.0463"}, {"sequence": "AGGTTCGG", "PBM E-score": "inactive: -0.164"}, {"sequence": "GATATGGA", "PBM E-score": "inactive: 0.087"}, {"sequence": "ATCCGTGG", "PBM E-score": "inactive: -0.177"}, {"sequence": "AATCCGAA", "PBM E-score": "inactive: 0.0259"}, {"sequence": "GCATTTCA", "PBM E-score": "inactive: 0.0257"}, {"sequence": "ATAAAACG", "PBM E-score": "inactive: 0.104"}, {"sequence": "ACTATCGA", "PBM E-score": "inactive: 0.0431"}, {"sequence": "ACTTTGGC", "PBM E-score": "inactive: -0.0425"}, {"sequence": "CTCGCTGA", "PBM E-score": "inactive: -0.119"}, {"sequence": "GAACCGTA", "PBM E-score": "inactive: -0.0853"}, {"sequence": "CCGCAGCG", "PBM E-score": "inactive: -0.208"}, {"sequence": "GCGTAAAC", "PBM E-score": "inactive: -0.0748"}, {"sequence": "CAAACGGG", "PBM E-score": "inactive: -0.0757"}, {"sequence": "AGGGGTGA", "PBM E-score": "inactive: -0.118"}, {"sequence": "GTTCCTAA", "PBM E-score": "inactive: 0.0711"}, {"sequence": "GCATGAGA", "PBM E-score": "inactive: -0.0059"}, {"sequence": "CCAACTCA", "PBM E-score": "inactive: -0.095"}, {"sequence": "ACATTGAC", "PBM E-score": "inactive: 0.219"}, {"sequence": "CGAGCTCC", "PBM E-score": "inactive: -0.171"}, {"sequence": "CCTCACAC", "PBM E-score": "inactive: -0.0915"}, {"sequence": "ACTACTGC", "PBM E-score": "inactive: 0.0623"}, {"sequence": "TGTTCCAA", "PBM E-score": "inactive: 0.216"}, {"sequence": "CAAAGGTA", "PBM E-score": "inactive: 0.0276"}, {"sequence": "GGCACAAC", "PBM E-score": "inactive: 0.0276"}, {"sequence": "CTATCCGA", "PBM E-score": "inactive: 0.124"}, {"sequence": "CCACATCC", "PBM E-score": "inactive: -0.0474"}, {"sequence": "CAGACTGG", "PBM E-score": "inactive: -0.0602"}, {"sequence": "GAAGACAA", "PBM E-score": "inactive: 0.123"}, {"sequence": "TGAAGAAA", "PBM E-score": "inactive: 0.0487"}, {"sequence": "CAATAATG", "PBM E-score": "inactive: 0.109"}, {"sequence": "TCCTATAA", "PBM E-score": "inactive: 0.0664"}, {"sequence": "GCCTAGAA", "PBM E-score": "inactive: -0.135"}, {"sequence": "GATTCAGC", "PBM E-score": "inactive: -0.0453"}, {"sequence": "ACATGTTG", "PBM E-score": "active: 0.453"}, {"sequence": "CCAAATCC", "PBM E-score": "inactive: -0.0997"}, {"sequence": "GCGAGGGA", "PBM E-score": "inactive: -0.196"}, {"sequence": "ACATTTCC", "PBM E-score": "inactive: 0.147"}, {"sequence": "CTACAGGC", "PBM E-score": "inactive: -0.0109"}, {"sequence": "CACTTCGA", "PBM E-score": "inactive: -0.0269"}, {"sequence": "GCCACGCC", "PBM E-score": "inactive: -0.25"}, {"sequence": "ATAGCGTC", "PBM E-score": "inactive: 0.0181"}, {"sequence": "ATGAACGC", "PBM E-score": "inactive: 0.0253"}, {"sequence": "GTCGAAAC", "PBM E-score": "inactive: -0.00765"}, {"sequence": "CAAAAATA", "PBM E-score": "inactive: 0.0606"}, {"sequence": "GGTTGTAC", "PBM E-score": "inactive: 0.222"}, {"sequence": "AATCAACG", "PBM E-score": "inactive: 0.0957"}, {"sequence": "ACTGGCTC", "PBM E-score": "inactive: -0.118"}, {"sequence": "ACGTTCGC", "PBM E-score": "inactive: -0.0753"}, {"sequence": "TATGGACA", "PBM E-score": "inactive: 0.202"}, {"sequence": "AGAACGGC", "PBM E-score": "inactive: -0.0475"}, {"sequence": "CCATGAAC", "PBM E-score": "inactive: 0.0647"}, {"sequence": "TAGTTAGA", "PBM E-score": "≥ 0.102"}, {"sequence": "ACTCAATC", "PBM E-score": "inactive: 0.0442"}]}]}
